The list shows a part of the results. Antibody binding of pooled human sera (four to six donors per pool; dilution not stated) to peptides of the Trypanosoma cruzi antigen TSSA on microarrays. Quantile-normalised fluorescence in arbitrary units, mean of duplicate arrays; higher = more binding. No active / inactive call. The uninfected pools are read here as the healthy donors of the same country. The strongest signals lie near the top of the scale (about 60,000).
Assays:
Experiment in all cases: antibody binding signal (normalised fluorescence) (arbitrary fluorescence units); higher = stronger serum antibody binding to peptide
[1] = tested on: pooled sera of chronic Chagas disease patients, Argentina
Experimental: (§1)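 Microarray of 15-residue peptides over residues 30-55 of Trypanosoma cruzi TSSAII, each with 1 to 10 substitutions at naturally variable positions, probed with one serum pool per country.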

[2] = tested on: pooled sera of chronic Chagas disease patients, Bolivia
Experimental: as §1

[3] = tested on: pooled sera of chronic Chagas disease patients, Brazil
Experimental: as §1

[4] = tested on: pooled sera of chronic Chagas disease patients, Colombia
Experimental: as §1

[5] = tested on: pooled sera of chronic Chagas disease patients, Mexico
Experimental: as §1

[6] = tested on: pooled sera of chronic Chagas disease patients, USA
Experimental: as §1

[7] = tested on: pooled sera of uninfected people, Argentina
Experimental: as §1

[8] = tested on: pooled sera of uninfected people, Bolivia
Experimental: as §1

[9] = tested on: pooled sera of uninfected people, Brazil
Experimental: as §1

[10] = tested on: pooled sera of uninfected people, Colombia
Experimental: as §1

[11] = tested on: pooled sera of uninfected people, Mexico
Experimental: as §1

[12] = tested on: pooled sera of uninfected people, USA
Experimental: as §1

Row | Sequence | antibody binding signal [1] | antibody binding signal [2] | antibody binding signal [3] | antibody binding signal [4] | antibody binding signal [5] | antibody binding signal [6] | antibody binding signal [7] | antibody binding signal [8] | antibody binding signal [9] | antibody binding signal [10] | antibody binding signal [11] | antibody binding signal [12]
1 | KEKKTAAGGTPSQSG | 213 | 228 | 164 | 3170 | 186 | 1490 | 203 | 95.8 | 262 | 111 | 151 | 108
2 | KPAAGGTPSPSGASS | 164 | 215 | 287 | 1600 | 2520 | 330 | 140 | 140 | 309 | 240 | 82.7 | 230
3 | GKENKAATGEAPSQS | 30100 | 12700 | 34500 | 10900 | 11900 | 31300 | 678 | 152 | 105 | 151 | 153 | 154
4 | STPPSGKEKKAATGE | 18200 | 316 | 1090 | 582 | 29000 | 1610 | 547 | 609 | 106 | 459 | 105 | 187
5 | SGTDNKTAAGGAPSQ | 259 | 475 | 40100 | 6570 | 591 | 329 | 307 | 569 | 1850 | 250 | 228 | 219
6 | DNKAATGETPSPSGA | 3260 | 6300 | 18700 | 212 | 154 | 12800 | 162 | 221 | 167 | 169 | 164 | 1270
7 | GTDNKAATGETPSPS | 4130 | 6410 | 35800 | 317 | 213 | 16100 | 171 | 670 | 917 | 139 | 543 | 3430
8 | NKTAAGGAPSPSGAS | 336 | 470 | 5560 | 6660 | 1230 | 801 | 874 | 1050 | 457 | 327 | 342 | 1350
9 | SGKEKKPAAGGTPSQ | 7330 | 1300 | 4800 | 5870 | 7330 | 5410 | 169 | 166 | 720 | 137 | 93.5 | 222
10 | SGTENKTAAGEAPSP | 34000 | 8850 | 15000 | 357 | 288 | 11600 | 510 | 305 | 207 | 314 | 187 | 176
11 | PSGTDNKTATGETPS | 7840 | 15100 | 40400 | 255 | 264 | 6810 | 130 | 607 | 910 | 280 | 144 | 198
12 | GKDKKAAAGEAPSQS | 3500 | 5150 | 1930 | 6620 | 4600 | 8900 | 151 | 91.8 | 96.1 | 100 | 81.7 | 99.6
13 | GKENKTATGEAPSQP | 23600 | 10600 | 40400 | 16800 | 13600 | 20700 | 531 | 168 | 139 | 254 | 232 | 150
14 | PPSGTDKKPAAGETP | 18700 | 25000 | 42700 | 5630 | 42500 | 3650 | 585 | 498 | 514 | 827 | 4720 | 338
15 | GTEKKAAAGGTPSPP | 390 | 201 | 244 | 5540 | 587 | 1920 | 154 | 723 | 2170 | 178 | 130 | 146
16 | GTDKKTAAGGTPSQS | 425 | 238 | 173 | 9040 | 426 | 1880 | 211 | 164 | 685 | 154 | 320 | 118
17 | PPSGTENKPAAGGTP | 54800 | 44400 | 51200 | 914 | 11400 | 21500 | 2970 | 2890 | 1920 | 1230 | 500 | 1190
18 | STPPSGKDNKTATGE | 14700 | 22000 | 11100 | 1790 | 19400 | 4390 | 400 | 661 | 224 | 378 | 98.4 | 125
19 | PSGKDKKTAAGGAPS | 3390 | 1340 | 2490 | 7550 | 5290 | 4880 | 192 | 289 | 127 | 170 | 154 | 186
20 | PSGKDNKPATGETPS | 38000 | 28400 | 34200 | 1820 | 2170 | 26300 | 549 | 1170 | 462 | 229 | 1760 | 181
21 | DNKPAAGEAPSPSGA | 462 | 2890 | 27700 | 297 | 159 | 16400 | 167 | 231 | 350 | 149 | 267 | 92.9
22 | DKKPATGEAPSQSGA | 44900 | 49300 | 47300 | 163 | 210 | 42400 | 829 | 734 | 233 | 298 | 212 | 166
23 | ENKAATGGAPSQSGA | 603 | 1520 | 4500 | 868 | 592 | 3100 | 352 | 179 | 235 | 223 | 153 | 172
24 | GKDNKPAAGETPSPS | 1450 | 309 | 10700 | 1500 | 1970 | 3780 | 425 | 891 | 143 | 230 | 451 | 1520
25 | DNKAAAGGTPSQSGA | 468 | 261 | 548 | 3050 | 308 | 1090 | 263 | 326 | 2240 | 391 | 676 | 229

Source: the supplement of paper PMC10441789
